“And” between values parts separate entries of the source, which are not always exact repeats. Equal values may be shown once. The campaign covered roughly 420,000 compounds. About 64,000 (15%) were called active. The inconclusive results got no clear call from the source; some entries with a clear call stand among them for comparison. The call rests on the fitted dose curve; in most records, active means well fitted inhibition curve with a large enough effect; inconclusive means small, poorly fitted or top-dose-only effect; inactive means flat fitted curve, though single readings scatter. A potency beside an inconclusive call is a rough fit, not a confirmed value.
Test: qHTS for Inhibitors of human tyrosyl-DNA phosphodiesterase 1 (TDP1): qHTS in cells in absence of CPT; further: nearly all actives have a fitted effect of over 55% in size
Details: DT40 Tdp1-/- hTDP1 cells, no CPT, ATP luminescence, 48 h; activity change, negative = growth inhibition: at 46.2 µM (top of the series) unless noted
How it was run: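 Growth of hTDP1-complemented DT40 Tdp1-knockout cells is measured by ATP luminescence after at least 48 hr compound exposure at 37 °C, with DMSO substituting for the 20 nM CPT used in the parallel screen.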
On the % scale 0 is the no-effect control and ±100 the full control effect; potency means the concentration at half of the fitted maximal effect; tags describe the fitted curve by direction and shape.

SMILES	Potency	activity change, negative = growth inhibition
CCN1CCN(Cc2nc3cc(NC(=O)COc4ccc([N+](=O)[O-])cc4)ccc3n2C)CC1	inactive	
COc1ccc(-c2csc(NC(=O)Cc3ccccc3F)n2)c(OC)c1	inconclusive: 29.1 µM [inhibitor, single point]	
Cc1ccc(Cc2c(-c3cccc(Cl)c3)nc3c(C)cc(Br)cn23)cc1	active: 20.6 µM	
Cc1cccc(C)c1Nc1c(-c2ccccc2Cl)nc2cnccn12	active: 20.6 µM	
COc1ccc(CCC(C)NCCc2ccc(Cl)cc2Cl)cc1 (centres undefined)	active: 23.1 µM	
CC(C)Oc1ccc(C(=O)NCC(=O)Nc2ccc3c(c2)CCC3)cc1	inactive	
NC(=O)CC(NC(=O)c1ccccc1)c1ccc(NCCc2cccc(F)c2)c([N+](=O)[O-])c1 (centres undefined)	inconclusive: 23.1 µM [inhibitor, single point]	
Brc1ccc(Cn2c(-c3ccc(Br)o3)nc3ccccc32)o1	inconclusive: 29.1 µM [inhibitor, single point]	
CC(NCc1ccc(S(N)(=O)=O)cc1)C(=O)N1c2ccccc2CC1C (centres undefined)	inactive	
Fc1ccc(/C=N/NC(=S)Nc2cccnc2)cc1F	inconclusive: 29.1 µM [inhibitor, single point]	
COCC(=O)Nc1cc(C(=O)N2CC3CC4CC(C3)CC2C4)c2c(c1)nc(-c1ccncc1)n2C	inconclusive: 29.1 µM [inhibitor, single point]	
CCOc1ccc2nc(NC(=O)COc3ccc(N(C)S(=O)(=O)c4ccc(C)cc4)cc3)sc2c1	inconclusive: 23.1 µM [inhibitor, single point]	
O=S(=O)(c1ccc(-c2nnc(SCc3ccccc3)o2)cc1)N1CCCC1		inconclusive: -31.3% [inhibitor]
Cc1ccc(S(=O)(=O)Nc2cc(C)cn(Cc3ccc(F)cc3)c2=O)cc1	inconclusive: 16.4 µM [inhibitor, single point]	
COc1ccccc1N1CCN(C2C(=O)c3ccccc3N2C(C)=O)CC1 (centres undefined)	inconclusive: 18.4 µM [inhibitor, single point]	
Cn1cc(Br)c(C(=O)N2CCCCCC2)n1	inactive	
Cc1ccc(C)n1NC(=O)c1ccc([N+](=O)[O-])cc1	inconclusive: 20.6 µM [inhibitor, single point]	
CCCCNC(=O)c1ccc(Cn2c(=S)[nH]c3c([nH]c4ccc(OC)cc43)c2=O)cc1	inconclusive: 29.1 µM [inhibitor, single point]	
CCOc1ccc(S(=O)(=O)NCC(c2ccc(N(C)C)cc2)N2CCCC2)cc1 (centres undefined)	active: 25.9 µM	
CC1(C(=O)NCCC#N)CCN1C(=O)C1(c2ccccc2)CC1 (centres undefined)	inconclusive: 3.26 µM [inhibitor, partial curve]	
COc1cccc(NC(=O)C2(C)CCN2Cc2ccccc2OC(F)F)c1 (centres undefined)	active: 16.4 µM	
CCc1nc2ccccc2c(C(=O)OCC(=O)Nc2ccc(S(=O)(=O)N3CCOCC3)cc2)c1C	inconclusive: 22.4 µM [inhibitor, single point]	
Cn1cnc2cc(NCc3ccccc3Cl)ccc21	inactive	
CCCn1c(=O)c2[nH]c(C3CCCC3)nc2n(CCC)c1=O	inactive and inconclusive: 3.66 µM [inhibitor, partial curve]	
Oc1ccc2ccccc2c1CN1CCN(c2ccccc2)CC1	inactive	

SMILES	Potency	activity change, negative = growth inhibition
C1CC1C(=NN=C(C1CC1)C1CC1)C1CC1		inconclusive: -26.6% [inhibitor]
CCOc1ccc(-c2nnc(SCC(=O)Nc3ccccc3C(F)(F)F)o2)cc1	inconclusive: 23.1 µM [inhibitor, single point]	
CCCNC(=O)c1ccc2c(c1)ncn2-c1ccccc1OC		inconclusive: -31.8% [inhibitor]
Cc1cccc(C(=O)NC(=S)Nc2ccc(S(=O)(=O)N(C)c3ccccc3)cc2)c1	active: 13 µM	
COc1cccc(NC(=O)CN(C)C(=O)[C@@H]2CCCN2C(=O)c2cccs2)c1		inconclusive: -36.1% [inhibitor]
Cc1cc([N+](=O)[O-])c(N2CCC[C@@H]2C(=O)O)c([N+](=O)[O-])c1	inactive	
COc1cccc(CNC(=O)CSc2nnc3c(n2)[nH]c2ccc(F)cc23)c1	inconclusive: 20.6 µM [inhibitor, single point]	
O=C(NC1CCCCC1)C(c1ccccc1)N1CCc2ccccc21 (centres undefined)	active: 20.6 µM	
CC(=NNC(=S)Nc1ccccc1)c1ccccn1	active: 0.116 µM	
N#Cc1c(-c2ccccc2Cl)noc1/C=C/Nc1ccc(C(=O)O)cc1	inactive	
CCCCC(=O)Nc1ccc(NC(=S)NC(=O)c2cccs2)cc1OC	inactive	
CCOc1ccc(OCC)c(NC(=O)c2nnn(Cc3cc(Br)ccc3OC)c2N)c1	inactive	
CCc1ccc(NC2=CC(=O)C(=O)c3ccccc32)cc1	active: 2.91 µM	
Cn1ccc2c(-c3ccc(F)nc3)cc3c(c21)C1CCC3O1 (centres undefined)	inconclusive: 23.1 µM [inhibitor, single point]	
O=C(c1c(Cl)nc2sccn12)N1CCCc2ccccc21	inconclusive: 11.2 µM [inhibitor, partial curve]	
S=c1[nH]nc(CCc2ccccc2)n1-c1ccccc1	inactive	
O=C(Nc1nc2c(s1)CCCC2)c1ccc2ncsc2c1	inconclusive: 29.1 µM [inhibitor, single point]	
O=C(CSc1nc2ccccc2c(=O)n1CCCN1CCOCC1)c1c[nH]c2ccccc12	inconclusive: 25.9 µM [inhibitor, single point]	
Cc1oc2c(c1C(=O)N1CCOCC1)C(=O)c1ccccc1C2=O	active: 2.59 µM	
O=C(CN1CCN(c2ccccc2)CC1)c1c[nH]c2ccccc12		inconclusive: -33.3% [inhibitor]
C=CCn1c(SCC(=O)NCC2CCCO2)nnc1-c1ccccc1 (centres undefined)	inactive	
COCCn1cnc2c1c(=O)n(Cc1ccccc1C#N)c(=O)n2Cc1ccccc1	inactive	
Cc1nn2c3c(cnc2c1-c1ccccc1)C(=O)CC(c1ccco1)C3 (centres undefined)	inconclusive: 23.1 µM [inhibitor, single point]	
CCNc1nc(NCC)n2c(SCC(=O)Nc3ccc(CC)cc3)nnc2n1	inconclusive: 29.1 µM [inhibitor, single point]	
